Source: PMC4336329 (PLoS ONE, 2015)
Hit rate of the full screen: of about 310,000 compounds, about 14,000 (4.5%) showed an effect of 50% or more. The effect is printed as a negative number. The list shows a part of the results.

Each compound was assayed against human ether-à-go-go-related gene (hERG) potassium channel (human, UniProt Q12809) (assay: primary screen, population patch clamp on CHO cells stably expressing hERG).
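Note: peak tail current of the secondary pulse compared with the same well before compound.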

Chain of human ether-à-go-go-related gene (hERG) potassium channel (Q12809 whole entry, looked up): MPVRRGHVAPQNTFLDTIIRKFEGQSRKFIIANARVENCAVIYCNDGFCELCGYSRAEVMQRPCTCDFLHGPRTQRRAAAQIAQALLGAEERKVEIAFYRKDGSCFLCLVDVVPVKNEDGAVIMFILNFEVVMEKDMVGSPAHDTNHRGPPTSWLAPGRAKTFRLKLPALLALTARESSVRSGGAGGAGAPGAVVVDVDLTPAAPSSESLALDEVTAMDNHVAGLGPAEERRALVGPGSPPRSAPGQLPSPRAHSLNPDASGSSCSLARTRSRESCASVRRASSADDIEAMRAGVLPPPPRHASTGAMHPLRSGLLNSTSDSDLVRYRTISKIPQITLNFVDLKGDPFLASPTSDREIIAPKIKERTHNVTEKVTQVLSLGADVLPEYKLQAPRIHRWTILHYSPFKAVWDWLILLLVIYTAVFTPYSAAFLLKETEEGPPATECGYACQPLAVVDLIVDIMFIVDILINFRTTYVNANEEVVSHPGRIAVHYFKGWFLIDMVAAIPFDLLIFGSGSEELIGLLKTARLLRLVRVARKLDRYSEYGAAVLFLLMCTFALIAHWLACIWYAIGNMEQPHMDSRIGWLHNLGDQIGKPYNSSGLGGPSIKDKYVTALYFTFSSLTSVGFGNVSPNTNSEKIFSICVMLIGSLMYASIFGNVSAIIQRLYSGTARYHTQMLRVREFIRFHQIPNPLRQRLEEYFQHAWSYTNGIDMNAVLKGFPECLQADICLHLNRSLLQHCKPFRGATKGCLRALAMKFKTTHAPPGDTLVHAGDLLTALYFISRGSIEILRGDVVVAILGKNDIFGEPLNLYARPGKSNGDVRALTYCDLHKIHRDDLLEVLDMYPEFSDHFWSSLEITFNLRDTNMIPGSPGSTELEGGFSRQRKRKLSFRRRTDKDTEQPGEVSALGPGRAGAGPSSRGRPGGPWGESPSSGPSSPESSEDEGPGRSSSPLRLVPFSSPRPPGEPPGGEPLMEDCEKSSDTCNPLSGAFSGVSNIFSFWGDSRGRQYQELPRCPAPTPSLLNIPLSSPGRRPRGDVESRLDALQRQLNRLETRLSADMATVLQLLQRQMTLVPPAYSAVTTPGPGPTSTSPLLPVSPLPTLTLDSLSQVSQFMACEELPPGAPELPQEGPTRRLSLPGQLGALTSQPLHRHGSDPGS

Row | Compound | hERG current change (%, negative = inhibition) at 10uM [%]
1 | COc1ccccc1CCC(=O)N(CCC1=CCCCC1)c1c(N)n(Cc2ccccc2)c(=O)[nH]c1=O | 0.333
2 | Cc1ccsc1C(=O)NNC(=O)C1C2C=CC(C2)C1C(=O)O (stereo not drawn) | 11.8
3 | Cc1c(CCC(=O)NCCCn2ccnc2)c(=O)oc2c(C)c3oc4c(c3cc12)CCCC4 | -31.3
4 | CCNC(=S)NNC(=O)C1CCN(Cc2ccccc2)CC1 | 23.2
5 | CNC(=O)C1CCN(S(=O)(=O)c2c(C)noc2/C=C/N(C)C)CC1 | -1.72
6 | Cc1cc(Cl)ccc1Oc1nc(-c2ccccc2)ncc1S(C)(=O)=O | 9.48
7 | O=C1c2ccccc2C(=O)N1CCc1nc2ccccc2c(=O)n1-c1ccccn1 | 11.6
8 | O=C(Nc1ccc(-c2nc3cccnc3s2)cc1)C1CCCO1 (stereo not drawn) | 8.69
9 | C=CCn1c(O)c(C(C)=Nc2ccc(C(=O)OCC)cc2)c(=O)[nH]c1=O | -13.8
10 | COc1cc(C(=O)Sc2ccc(C)cc2)cc(OC)c1OC | 5.26
11 | O=C(c1cnsn1)N1CCC(CO)(Cc2cccc(F)c2)CC1 | 10.8
12 | O=C(CCC(=O)Nc1ccccc1)NNC(=O)c1cccs1 | 13.2
13 | O=C(O)C1C2c3ccccc3C(c3ccccc32)C1C(=O)Nc1ccccc1 (stereo not drawn) | 6.76
14 | O=C(c1ccc(Br)o1)N1CCN(c2ccccn2)CC1 | -19.3
15 | Cc1ccc(OCc2ccc(C(=O)N3CCOCC3)cc2)cc1C | -12.7
16 | CC(C)CN1C(=O)c2ccc(C(=O)NCc3ccccn3)cc2C1=O | -1.96
17 | CCCCNS(=O)(=O)c1ccc2nc(-c3cccnc3)cc(C(=O)NC3CCCC3)c2c1 | 13.1
18 | O=C(CCc1ccc(S(=O)(=O)N2CCOCC2)cc1)N1CCCC1 | 4.91
19 | CSc1ccccc1NC(=O)c1ccccc1C | -14.5
20 | Cc1nn(C)c(C)c1NC(=O)CSc1nc(C2CC2)nc2c1cnn2-c1ccccc1 | 1.91
21 | O=C(Cn1ccnc1)c1ccc(O)c(O)c1 | 7.66
22 | Cc1onc(-c2c(Cl)cccc2Cl)c1/C(N)=N/OC(=O)N(C)C | 9.17
23 | COc1cccc(OCCNc2ccc([N+](=O)[O-])cn2)c1 | -31.5

Row | Compound | hERG current change (%, negative = inhibition) at 10uM [%]
24 | O=C(Nc1nnc(SCC(=O)N2CCCc3ccccc32)s1)c1ccc2ccccc2c1 | 8.28
25 | COC(=O)c1cc(Br)c(=O)n(-c2cc(C)on2)c1 | 15.4
26 | N/C(=N\OC(=O)CSc1ccccc1)c1cccc([N+](=O)[O-])c1 | -8.22
27 | Fc1ccc(CSc2nnc(-c3ccco3)o2)cc1 | -6.74
28 | C=CCNC(=O)C1CCC(C(=O)NCC=C)CC1 (stereo not drawn) | 3.04
29 | O=C(CSc1ncccc1C(=O)O)c1ccc2ccccc2c1 | 3.37
30 | CC(=O)Nc1ccc(S(=O)(=O)NCCCN2CCOCC2)cc1 | 16
31 | CCCCn1c(N)c(N(CC(C)C)C(=O)c2cc(C)nc3ccccc23)c(=O)[nH]c1=O | 9.03
32 | O=C(CCC(=O)N1CCN(Cc2ccc(F)cc2)CC1)Nc1nnc(C2CCCCC2)s1 | 6.92
33 | Cc1ccc(CNC(=O)C(Cc2ccccc2)NS(=O)(=O)c2ccc3c(c2)CCC(=O)N3)cc1 (stereo not drawn) | -23.3
34 | CC(C)CCn1c(=O)c2c(nc3n2CCCN3Cc2ccccc2)n(C)c1=O | -37.7
35 | CCOC(=O)Cn1nc(-c2ccccc2)c2ccccc2c1=O | -8.08
36 | CCCCN(CC)CCCNC(=O)CC1Nc2ccccc2NC1=O (stereo not drawn) | 1.98
37 | Cc1ccccc1NC(=S)N(C)Cc1cccs1 | -7.89
38 | Cc1ccc(OCCCN2C(=O)C(=O)c3cccc(C)c32)cc1 | 13.1
39 | CCN(CCn1cccn1)C(=O)CCc1nnc(CCc2ccccc2OC)o1 | 5.73
40 | CC(CCc1ccccc1)NC(=O)COC(=O)c1cc(NS(=O)(=O)c2ccc(Cl)c([N+](=O)[O-])c2)ccc1O (stereo not drawn) | 14.1
41 | CC(=O)c1cc(C#N)c(SCC(=O)O)nc1C | 2.02
42 | O=C(COc1ccccc1Cl)Nc1ccc(Cl)cn1 | 20
43 | Cn1c(=O)c2ccccc2n(Cc2ccccc2Cl)c1=O | 0.661
44 | CCc1ccc(C(C(=O)NC2CCCC2)N(C(=O)/C=C/C(=O)Nc2cc(C)on2)c2ccccc2C)cc1 (stereo not drawn) | 9.58
45 | CC1CCCC(NC(=O)c2ccc(F)c(S(=O)(=O)N3CCOCC3)c2)C1C (stereo not drawn) | 4.67
